± gives the standard deviation of the averaged measurements. Some of the results follow.

This test deals with PfAP2-LT AP2 domain (GST-tagged). In words: gcPBM binding intensity (ln(normalized median fluorescence intensity)); higher = stronger DNA binding. The gist of the method:
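The binding buffer was 1× PBS containing 1% milk, 0.2 mg/ml BSA, 0.5% salmon testes DNA and 0.03% Triton X-100. In it, GST-tagged P. falciparum DNA-binding domains expressed in E. coli were applied for 1 h to an Agilent 4 × 180k array of primer-extended double-stranded 36-bp intergenic genomic probes plus negative controls. Binding intensity, read with Alexa488 anti-GST antibody and a 488 nm scan, is the highest Masliner-normalised natural-log median intensity across replicate spots of either probe orientation.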
“TTATTTATTTATTATAGTTCACTTGAAAATACAAGA [CACACA_negctrl_site1480]”: the “gcPBM binding intensity (ln)” value worked out at 8.25 ± 0.41.

For “CATATATACAGTAACACACACAAAAAAATATGAATA [CACACA_site3996]”, the “gcPBM binding intensity (ln)” value was found to be 9.62 ± 0.41. Consider “ATAAAAAAAAAAAATACACACATATATATATATATA [CACACA_site1709]”, for which the “gcPBM binding intensity (ln)” value worked out at 9.82 ± 0.41. The figure for “AAAAAATATAAAAAAACACACAAAAAAAAAAAAAAA [CACACA_site1382]” is 8.6 ± 0.59; for “TTCTTAAAAAATCAAACACACATATATAAATACATA [CACACA_site5301]” it is 8.66 ± 0.4; for “AAAGACGTTTATAAATGTACATACACTTTAAAAGTT [XGTACX_site8753]” it is 8.75 ± 0.47. As for “CCCCATTTATCTTAAGCATGCCATGGTTTTAGATAT [TGCATGCA_site24]”, the “gcPBM binding intensity (ln)” value came out at 9.19 ± 0.099. With “AATTATTTTAGAAACACACAAATTAGAAAAAACATA [CACACA_site7673]” the figure was 8.69 ± 0.49; with “GTATATATCTCAGAGCATAATAGTATAATTCGGTCA [CACACA_negctrl_site876]”, 8.84 ± 0.4; with “AATAACATTATTTTATGTACACATGAAAAATAAAAT [XGTACX_site4657]”, 8.67 ± 0.38. As for “TGTAATAAACTACTTTTTTTTTTTTTTTTTTTTTTT [CACACA_negctrl_site1021]”, the “gcPBM binding intensity (ln)” value was determined as 8.58 ± 0.2. The figure for “AATATCAAAATAACATGTACATGTTATATTTTATTT [XGTACX_site5891]” is 8.71 ± 0.4; for “TGATATTTCATCATAGTGCAATATGGCATATAAATA [GTGCAC_site9433]” it is 8.69 ± 0.45. The figure for “AATATATATATAAATAGTACATATAAAGAGAATTTT [XGTACX_site3168]” is 8.84 ± 0.5; for “CAGAAATATTCTTATACACACTGTTCTTATATTCCT [CACACA_site4318]” it is 9 ± 0.47.

On to “ATTAAAACAAAATGTACACACATATAATTTAATGAC [CACACA_site878]”, for which the “gcPBM binding intensity (ln)” value came out at 9.09 ± 0.48. With “TTTATCTTTTTTTGTTGTACAGATGTTTATATTTTA [XGTACX_site4065]” the figure was 8.9 ± 0.49. Regarding “AAAATGAAAATGAAAATGAAAATGGGAAAATGTCAA [TGCATGCA_negctrl_site488]”, the “gcPBM binding intensity (ln)” value was 8.87 ± 0.44. On to “TATAATTATATGTATACACACACATACATTTACATA [CACACA_site9061]”, for which the “gcPBM binding intensity (ln)” value was found to be 9.31 ± 0.3. With “TAAATAAAAAAGAATACACACAGCATGCATAAATAT [CACACA_site237]” the figure was 9.38 ± 0.35; with “TTATATATAAGTTTATTCATTTTTTTTTTTTTTTTT [XGTACX_negctrl_site573]”, 8.28 ± 0.52; with “CATATATATCGTAATGCACACATGTAATTTCATAAT [CACACA_site811]”, 9.18 ± 0.46. Turning to “TCTGTATATTATTCAAGTACACAATATAAATATAAA [XGTACX_site7241]”, the “gcPBM binding intensity (ln)” value was 8.51 ± 0.48. The figure for “TATTGTTTTTTTTACTGTACACAAGTAAATGAAAAA [XGTACX_site790]” is 8.27 ± 0.42. The figure for “AAAAAATTCAAAAGGTGTACAACATTATATTATTCC [XGTACX_site5118]” is 8.88 ± 0.36. For “GTATATAATTAAAGTTGTACCCTTAAAAAAGGGAAA [XGTACX_site7278]”, the “gcPBM binding intensity (ln)” value was 8.46 ± 0.42. Take “AAAAATAAAAAAATAAATACGTATACATATATAATA [TGCATGCA_negctrl_site551]”: the “gcPBM binding intensity (ln)” value turned out to be 8.82 ± 0.45.

In the case of “GAACAAATTAAATAGGTGCATTAACATGTTCTATTT [GTGCAC_site9729]”, the “gcPBM binding intensity (ln)” value is 8.88 ± 0.53.

With “GATAACTTTTTTCTCACACACAAATATTTTAATCAT [CACACA_site7685]”, the “gcPBM binding intensity (ln)” value was determined as 9.12 ± 0.42. The figure for “TAAATGTGAACAATAGAAGTAATAAGAAGAATAAAA [CACACA_negctrl_site1080]” is 8.74 ± 0.5; for “AATGAATAATTATTTTGTACATAATATTATATTTAT [XGTACX_site5350]” it is 8.71 ± 0.52.

For the sequence “TTTATTTTTTGTGGCACACAGAAGAAACAAGAACAA [CACACA_site1696]”, the “gcPBM binding intensity (ln)” value came to 8.72 ± 0.43. Take “AATAGTAATTTGAATACACACAATAATATATTTATA [CACACA_site7055]”: the “gcPBM binding intensity (ln)” value is 8.88 ± 0.39. The figure for “TAACACCAAACTAAATGTACACACATACATAAATAT [XGTACX_site2201]” is 9.35 ± 0.28; for “TCTTATATGATATTTATTTATTTATTTATTTATTCA [GTGCAC_negctrl_site686]” it is 8.72 ± 0.49; for “GGAATAGTAATATATACACACAAATACATATATATA [CACACA_site67]” it is 9.29 ± 0.46.

Take “TTTATTTTTTAATGATGTACTATTTATCCAGAAAAG [XGTACX_site7750]”: the “gcPBM binding intensity (ln)” value was determined as 8.22 ± 0.42.

For the sequence “AAATTAAATGTAAGCACACATAAATTATACTCATAT [CACACA_site5782]”, the “gcPBM binding intensity (ln)” value is 8.91 ± 0.45. The figure for “ACTTATACAAAATGTGCATGTTATATTTACAATAAT [TGCATGCA_site108]” is 8.79 ± 0.35.

Turning to “ATAAGCTCATGCAGGTGTACACAAAAAGAAAAAAAA [XGTACX_site2433]”, the “gcPBM binding intensity (ln)” value turned out to be 9.05 ± 0.64. Take “ATAATGAAAAGGAACATACACACCCCATATAAATAT [CACACA_site3442]”: the “gcPBM binding intensity (ln)” value turned out to be 9.61 ± 0.12.

For “AAAAAAAGTAAATGTTGTACTATAATATGTAATATA [XGTACX_site7966]”, the “gcPBM binding intensity (ln)” value was 8.63 ± 0.55. For “ATATACATATCCATATTTATATCTATATTTAAAACA [CACACA_negctrl_site747]”, the “gcPBM binding intensity (ln)” value stood at 8.46 ± 0.5. The figure for “TACATATATATTATATGTACTTATATTTTTATAATA [XGTACX_site3452]” is 8.59 ± 0.46.

For the origin of these results see the supplement of paper PMC11417369.
